The RNAGym collection of RNA variant scans (doi:10.1073/pnas.2313332121)
This sample is rich in variants without activity.

B1: TPR 5TU (parent)
chain: GGAUCUUCUCGAUCUAACAAAAAAGACAAAUCUGCCACAAAGCUUGAGAGCAUCUUCGGAUGCAGAGGCGGCAGCCUUCGGUGGCGCGAUAGCGCCAACGUUCUCAACUAUGACACGCAAAACGCGUGCUCCGUUGAAUGGAGUUUAUCAUG

Variants of: B1
Experiment: polymerase ribozyme fitness, log enrichment relative to wild type (log ratio); higher = more active; in vitro selection for triplet polymerase activity
In short: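 One round of in vitro selection, in triplicate, was applied to PCR-built, transcribed mutant libraries of each subunit of a heterodimeric triplet polymerase ribozyme. The steps were annealing with a biotinylated primer, partner subunit and triplets, incubation frozen at −7 °C, gel excision of extended constructs, streptavidin-bead capture and RT-PCR. Fitness is the logarithm, base 2, of genotype enrichment over wild-type enrichment from inverse-variance-weighted replicate averages of Illumina-sequenced inputs and outputs, keeping genotypes with ≥10 input reads and ≥1 read per output.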

Question: With GGAUCUUCUCGAUCUAACAAAAAAGACAAAUCUGCCUCAAAGCUUGAGAGCAUCUUCGGAUGCAGAGGCGGCAGCCUUCGGGGGCGAGAUAGCGCCAACGUUCUCAACUAUGACACGCAAAACGCGUGCUCCGUUGAAUGGAGUUUAUCAUG as the variant, how does the “polymerase ribozyme fitness (log ratio)” value read?
Answer: The value was no more than -4.2.

Question: Which “polymerase ribozyme fitness (log ratio)” value does the source give for GGAUCUUCUCGAUCUAACAAAAAAGACAAAUCUGCCAAAAAGCUUGAGAGCAUCUUCGGAUGCAGAGGCGGCAGCCUUCGGUGGCGCGAUAGCGCCAACGUUCUCAACUAUGACACGCAAAACGCGUGCUCCGUUGAAUGGAGUUUAUCAUG here?
Answer: Its value is -0.151.

Question: For GGAUCUUCUCGAUCUAACAAAAAAGACAAAUCUGCCAACAAACUUGAGAGCAUCUUCGGAUGCAGAGGCGGCAGCCUUCGGUGGCGCCAUAGCGACAACGUUCUCAACUAUGACAAGCACAACGCGUGUUCCGUUGAAUGGAGUUUAUCAUG, which “polymerase ribozyme fitness (log ratio)” value is on record?
Answer: The value was no more than -4.2.

Question: For GGAUCUUCUCGAUCUAACAAAAAAGACAAAUCUGCCAAUAAGCUUGAGAGCAUCUUCGGAUGCAGAGACGGCAGCCCUCGGUGGCGCGAUAGCGCCAACGUUCACAACUAUGACACGCGAAACGCGUGCUCCGUUGAAUUGAGUUUAUCAUG, which “polymerase ribozyme fitness (log ratio)” value is on record?
Answer: The value was no more than -4.2.

Question: For GGAUCUUCUCGAUCUAACAAAAAAGACAAAUCUGCCAAAAAGCUUGCGAGCAUCUUCGGAUGCAGAGGCGGCAGCCUUCGGUGGCGCGAUAGCGCAAACGUUCUCAACUAUGACACGCAAAACGCGUGCUCCGUUGAAUGGAGUUUAUCAUG, which “polymerase ribozyme fitness (log ratio)” value is on record?
Answer: Its value is -1.63.

Question: For GGAUCUUCUCGAUCUAACAAAAAAGACAAAUCUGCCAAAAAGCUUGUGAGCAACUUCGGAUGCAGAGGCGGCAGCCUUCGGUGGCUCGAUAGCGCCAAGGUGCCCAACUAUGACACGCAAAACUCGUGCUCCGUUGAAUGGAGUUUAUCAUG, which “polymerase ribozyme fitness (log ratio)” value is on record?
Answer: Its value is no more than -4.2.

Question: For GGAUCUUCUCGAUCUAACAAAAAAGACAAAUCUGCCAAAAAGCUUGAGCGCAUCUUCGGUUGCAGAGGCGGCAGCCUUUGGUGGCGCGAUAGCGCCAACGUUCUCAACUAUGACACGCAUAACGCGUGCUUCGUUGAAUGGAGUUUAUCAUA, which “polymerase ribozyme fitness (log ratio)” value is on record?
Answer: Its value is no more than -4.2.

Question: Which “polymerase ribozyme fitness (log ratio)” value does the source give for GGAUCUUCUCGAUCUAACAAAAAAGACAAAUCUGCCAAAAAGCUUGAGCGCAUCAACGGAUGCAGAGGCGGCUGCCUUCGGGGGCGAGAUAGCGCCAACGUUCUCAACUAUGACACACAAAACGCGUGCUCCGUUGAAUGUAGUUUAUCAUG here?
Answer: Its value is no more than -4.2.

Question: Which “polymerase ribozyme fitness (log ratio)” value does the source give for GGAUCUUCUCGAUCUAACAAAAAAGACAAAUCUGCCAAAAAGCUUGAGUGCAUCUUCGGAAGAACAGGCGGCACACUUCGGUGGCGCGAUAACGCCAAUGUUCUCAACUAUGACACGCAAAACGCGUGCUCCGUUGUAUGGAGUUUAUCAUG here?
Answer: The value was no more than -4.2.

Question: For GGAUCUUCUCGAUCUAACAAAAAAGACAAAUCUGCCAAAAAGCUUGAGUGCAUCUUCGGAUGCAGAGGCGGCAGCCUUCGGUGGCGCGAUAGCGCCAACGUUCUCAACUAUGACACGCAAAACGCGUGCUCCGUUGAAUGGAGUUGAACAUG, which “polymerase ribozyme fitness (log ratio)” value is on record?
Answer: The value was no more than -4.2.

Question: Which “polymerase ribozyme fitness (log ratio)” value does the source give for GGAUCUUCUCGAUCUAACAAAAAAGACAAAUCUGCCAAAAAGCUUGAGAGCCUUUUCGGAUGCAGAGGCGGCAGCCUUCGGUGGCGCGAUAGCGCUAACGUUCUCAACUAUGACACGCAAAACGUGUGCUCCGUUGAAUAGAGUUUAUCAUG here?
Answer: The value was no more than -4.2.

Question: For GGAUCUUCUCGAUCUAACAAAAAAGACAAAUCUGCCAAAAAGCUUGAGAGCCUCUUCGGAUGCAGAGACGGCAGCCUUCGGUGGCACGAUAGCGCCAACGUUCUCAACUAUGACACGCAAAACGCGUGCUCCGUUGAAUGGUGUUUAUCAUG, which “polymerase ribozyme fitness (log ratio)” value is on record?
Answer: The value was no more than -4.2.

Question: With GGAUCUUCUCGAUCUAACAAAAAAGACAAAUCUGCCAAAAAGCUUGAGAGCAUCUUCGGUUGCAGAGGCGGCAGCCUUCGGUGACGCGAUAGCGCCAACGUUCUCAACUAUGACACGCAAAACGCGUGCUCCGCUGAAUGGAGUUUAUCAUG as the variant, how does the “polymerase ribozyme fitness (log ratio)” value read?
Answer: Its value is -1.6.

Question: With GGAUCUUCUCGAUCUAACAAAAAAGACAAAUCUGCCAAAAAGCUUGAGAGCAUCUUCGGAUGCGGAGGCGGCAGCCUUCGGUGGCGCGAUAGCGCCAACGUUCUCAACUAUGACACGCAAAACGCGUUCUCCGUUGAAUGGCGUUUAUCAUG as the variant, how does the “polymerase ribozyme fitness (log ratio)” value read?
Answer: Its value is no more than -4.2.

Question: Which “polymerase ribozyme fitness (log ratio)” value does the source give for GGAUCUUCUCGAUCUAACAAAAAAGACAAAUCUGCCAAAAAGCUUGAGAGCAUCUUCGGAUGCAGGGGCAGCAGCCUUCGGUGGCGCGAUAGCGCCAACGUUCUCAACUAUGACACGCAAAACGCGUGCUCCGUUGAAUGGAGUUUAUCAUG here?
Answer: Its value is no more than -4.2.

Question: Which “polymerase ribozyme fitness (log ratio)” value does the source give for GGAUCUUCUCGAUCUAACAAAAAAGACAAAUCUGCCAAAAAGCUUGAGAGCAUCUUCGGAUGCAGAGGCGGCAGCCUUCGGUGGCGCGGUAGCGGCAACGUUCUCAACUAUGACACGCAAAACACGUGCUCCGUUGAAUGGAGUUUAUCAUG here?
Answer: Its value is -2.76.

Question: With GGAUCUUCUCGAUCUAACAAAAAAGACAAAUCUGCCAAAAAGCUUGAGAGCAUCUUCGGAUGCAGAGGCGGCAGCCUUCGGUGGCGCGAUCGCGCCAACGUUCUCAACUAUGACACGCAAAACGCGUGCUCCGUUGAAUGGAGUUUAUCAUG as the variant, how does the “polymerase ribozyme fitness (log ratio)” value read?
Answer: Its value is no more than -4.2.

Question: For GGAUCUUCUCGAUCUAACAAAAAAGACAAAUCUGCCAAAAAGCUUGAGAGCAUCUUCGGAUGCAGAGGCGGCAGCCUUCGGUGGCGCGAUGGCGCCAACGUUCUCAACUAUGACACGCAAAACGCGUGCUCCGUUGAAUGGAGUUUAUCAUG, which “polymerase ribozyme fitness (log ratio)” value is on record?
Answer: Its value is -3.39.

Question: For GGAUCUUCUCGAUCUAACAAAAAAGACAAAUCUGCCAAAAAGCUUGAGAGCAUCUUCGGAUGCAGAGGCGGCAGCCUUCGGUGGCGCGAUAGCGCCAACGUUCUCAACUAUGGCACGCAAAACGCGCGCUCCGUUGAAUGGAGUUUAUCACG, which “polymerase ribozyme fitness (log ratio)” value is on record?
Answer: The value was no more than -4.2.
